# Test results: paper PMC6919601, “Identification of Plasmodium dipeptidyl aminopeptidase allosteric inhibitors by high throughput screening” (PLoS ONE, 2019)
# Hit rate of the full screen: of about 110,000 compounds, about 230 (0.21%) showed an effect of 50% or more. The list shows a part of the results.
# Target: DPAP1 (Plasmodium falciparum, UniProt Q8IIJ9)
# Experiment: primary screen, percent inhibition; read by cleavage of a fluorogenic dipeptide substrate; higher = more effect of the substance
# Parameters: species or system P. falciparum D10 trophozoite lysates; single well
# 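Note: 30 min substrate incubation versus DMSO and 10 µM JCP410 controls.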
# DPAP1, sequence (Q8IIJ9 whole entry, looked up): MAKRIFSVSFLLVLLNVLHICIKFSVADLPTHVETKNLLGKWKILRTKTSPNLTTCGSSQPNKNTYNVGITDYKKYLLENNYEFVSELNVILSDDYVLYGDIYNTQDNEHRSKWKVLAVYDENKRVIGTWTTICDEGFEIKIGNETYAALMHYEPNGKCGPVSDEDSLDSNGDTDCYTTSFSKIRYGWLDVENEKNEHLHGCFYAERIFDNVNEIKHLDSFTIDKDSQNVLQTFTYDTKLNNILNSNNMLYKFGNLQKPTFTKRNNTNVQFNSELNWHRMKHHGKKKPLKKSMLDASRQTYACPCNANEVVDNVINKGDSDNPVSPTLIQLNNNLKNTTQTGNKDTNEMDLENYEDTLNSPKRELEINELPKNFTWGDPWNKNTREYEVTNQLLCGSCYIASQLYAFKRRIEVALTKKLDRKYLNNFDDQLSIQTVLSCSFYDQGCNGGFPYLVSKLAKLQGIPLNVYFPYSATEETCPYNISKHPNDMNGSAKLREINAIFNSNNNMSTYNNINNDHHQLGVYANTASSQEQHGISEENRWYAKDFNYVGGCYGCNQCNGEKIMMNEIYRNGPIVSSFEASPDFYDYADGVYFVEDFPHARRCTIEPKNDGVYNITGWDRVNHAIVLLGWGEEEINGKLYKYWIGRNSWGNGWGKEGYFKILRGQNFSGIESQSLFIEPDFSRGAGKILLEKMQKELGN
row,Compound,% Inhibition @ 10 uM
1,C(=C\c1ccccc1)/CN1CCN(CC2CCCCC2)CC1,-1.78%
2,CC(=O)N1CCN(Cc2ccccc2Br)CC1,-1.5%
3,CSc1ncc(OCc2ccccc2)c(O)n1,-3.63%
4,Cc1ccc(-n2c(C)cc(C(=O)C(=O)Nc3nccs3)c2C)c(C)c1,5.48%
5,O=c1c2c(nc3n1CC(O)CS3)-c1ccccc1CC21CCCCC1 (centres unmarked),-0.711%
6,CCc1c(C)sc(NC(=O)c2cccc3ccccc23)c1C#N,5.54%
7,CN(C)C(=S)NC1CCS(=O)(=O)C1 (centres unmarked),2.56%
8,Cc1cc(CO)c(C)n1-c1ccccc1F,3.05%
9,CCCN(C(=O)C(C)(C)C)c1nc(-c2ccccc2)cs1,-3.28%
10,COCc1cc(C)nc2sc(C(=O)c3ccccc3)c(NC(=O)c3ccco3)c12,-2.8%
11,CCCN1C(C(=O)c2ccccc2)=C(OC(=O)c2ccccc2)c2ccccc2S1(=O)=O,-1.22%
12,Cc1ccc(/C=N/c2nc3ccccc3n2Cc2ccc(Cl)cc2)o1,21.4%
13,CCOc1ccccc1CN(C)CCN(C)C,3.48%
14,O=C(NCc1ccccc1)N1CCC(CN2CCc3ccccc3C2)CC1,8.14%
15,Cc1ccc(NC(=O)CC2Nc3cc(C)c(C)cc3NC2=O)cc1C (centres unmarked),1.86%
16,COc1ccc(C/N=C/C2=C(O)c3sccc3N(Cc3ccc(C)cc3)S2(=O)=O)cc1,7.46%
17,O=[N+]([O-])c1ccc(N2CCN(CC3CC4C=CC3C4)CC2)cc1 (centres unmarked),-4.14%
18,CCOc1ccc(S(=O)(=O)NCCc2c(C)[nH]c3ccc(C)cc23)cc1,4.12%
19,CCC(Sc1nc2c(sc3ccccc32)c(=O)n1CCCOC)C(=O)NC1CCCC1 (centres unmarked),-0.628%
20,O=C(O)c1ccc(C(=O)NCc2ccco2)c(C(=O)O)c1,-2.88%
21,NC(=O)c1ccc(NC(=O)c2ccc(Cl)cc2)cc1,3.21%
22,Cc1ccc(CS(=O)Cc2ccc(C(=O)N3CCOCC3)o2)cc1 (centres unmarked),-2.44%
23,COc1ccccc1/C=C/C1=NC(=C\C=C/c2ccccc2)/C(=O)O1,20.5%
24,COc1cc(S(=O)(=O)N2CCC(n3c(O)nc4ccccc43)CC2)ccc1-n1cnnn1,-2.4%
25,NS(=O)(=O)c1ccc(N2C(=O)c3cccnc3C2=O)cc1,-14.8%

row,Compound,% Inhibition @ 10 uM
1,CC1CCN(S(=O)(=O)c2ccc(NS(=O)(=O)Cc3ccccc3)cc2)CC1,0.956%
2,CCCC[C@H](NC(=O)[C@H](CC(C)C)NC(=O)OCc1ccccc1)C(=O)c1nnc(-c2ccccc2)o1,-6.46%
3,CCOc1ccccc1C1CC(=O)Nc2cc(C)c(C)cc21 (centres unmarked),-1.24%
4,CCOc1cc(-c2noc(CCCC(=O)NC3CCCCC3)n2)cc(Br)c1OC,-0.946%
5,COc1cc(C(=O)N2CCC(C)CC2)cc(OC)c1OC,-5.13%
6,O=C1CC(c2ccccc2)=NN1c1cccc([N+](=O)[O-])c1,-1.64%
7,Cc1c(Cl)cccc1NC(=O)c1ccccc1C(=O)O,-2.56%
8,O=C(O)c1ccc(CNS(=O)(=O)c2cccc(Cl)c2)cc1,-2.76%
9,NC(=S)N/N=C1\CC(n2nnnc2-c2ccccc2Cl)C2COC1O2 (centres unmarked),4.19%
10,CC(C(=O)NCC1(c2ccccc2)CCCC1)N1CCCC1 (centres unmarked),3.89%
11,Cc1ccc(OCC(=O)Nc2ccccc2Cl)cc1C,-10.8%
12,CC(C)NC(=O)c1ccc(CSc2nc3ccncc3n2Cc2ccccc2F)cc1,1.72%
13,CC(=O)Nc1ccc(C)c(NC(=O)C(C)C)c1,-0.598%
14,CCOCCCNC(=O)C1CCN(c2nn3cc(-c4ccc(C)cc4)nc3s2)CC1,3.43%
15,COc1nc(C)c(/C=C/C(=O)N(C(=O)NC2CCCCC2)C2CCCCC2)c(OC)n1,4.01%
16,O=C(O)Cc1ccc(NC(=O)c2ccc3c(c2)C(=O)N(CC2CCCO2)C3=O)cc1 (centres unmarked),-1.27%
17,Cc1ccc(OCC(=O)NC2CCCCCCC2)cc1,7.34%
18,CCOc1ccccc1C1CC(c2ccc(Cl)c(Cl)c2)Nc2nc(N)nn21 (centres unmarked),-9.75%
19,O=c1c(NCc2ccc(F)cc2)c(-c2ccccc2)c1=O,-5.92%
20,CN(C)C(=O)CCc1nc(-c2ccc(C(C)(C)C)cc2)no1,5.17%
21,N=C1S/C(=C\c2ccccc2F)C(=O)N1c1ccc2c(c1)OCO2,0.643%
22,COc1cc(-c2ccc(NC(=O)C(F)(F)F)c(OC)c2)ccc1NC(=O)C(F)(F)F,0.708%
23,Cc1c(CN2CCN(c3ccc(Cl)cc3)CC2)c(=O)n(-c2ccccc2)n1C,0.217%
24,Cc1ccc(OCC(=O)Nc2nc3ccccc3s2)cc1,4.11%
25,CCOC(=O)Nc1nnc(Cc2ccc(OC)c(OC)c2)s1,-2.16%
